# In PubChem BioAssay AID1479 (National Center for Advancing Translational Sciences (NCATS), 2009):
# Screen size: about 280,000 compounds; about 820 (0.29%) were called active. Inconclusive results, whose numbers are uncertain, are shown with a selection of clear calls. Calls follow the shape of the dose curve; as a rule, active = well fitted curve in either direction with a large enough effect; inconclusive = small, poorly fitted or top-dose-only effect; inactive = flat fitted curve, though single readings scatter. No potency is given beside an inconclusive call; the fits are too rough.
# Assay: Total Fluorescence Counterscreen for Inhibitors of the Interaction of Thyroid Hormone Receptor and Steroid Receptor Coregulator 2
# Settings: TRb/SRC2 Texas Red total fluorescence interference; series mostly up to 106 µM; fluorescence change, negative = quenching: at the top concentration
# Method in brief: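 Human TRb ligand-binding domain at 0.6 uM with 20 nM Texas Red SRC2 peptide in Tris buffer containing 1 uM T3 and 5% DMSO, incubated with compound 5 h at ambient temperature. Total fluorescence (555/632 nm) calculated as parallel + 2 × perpendicular.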
# % is scaled to controls: 0 for no effect and ±100 for the full control effect; potency is read from the fitted curve at half-maximal effect; tags tell the direction and shape of the fitted curve or compound fluorescence and quenching.
Structure (SMILES),Potency,"fluorescence change, negative = quenching"
O=C(Cn1c(=O)oc2cc(S(=O)(=O)N3CCCCC3)ccc21)Nc1cccc(Cl)c1,"inconclusive [quencher, full curve]",–
CCOC(=O)c1scc(-c2ccccc2)c1S(=O)(=O)Nc1ccccc1F,"inconclusive [falling, full curve, poor fit]",–
CCc1nn(-c2ccccc2)c2nc(-c3ccccc3OC)c3cc(OC)c(OC)cc3c12,active: 0.141 µM [quencher],–
O=C(Nc1ccc2nc(SCC(=O)N3CCOCC3)sc2c1)c1ccc(F)cc1,"inconclusive [falling, partial curve, poor fit]",–
COc1cccc(C(=O)Nc2ccc3oc(-c4ccc5ccccc5c4)nc3c2)c1,"inconclusive [falling, full curve, poor fit]",–
CN1/C(=C\C=C2/SC(=S)NC2=O)C(C)(C)c2ccccc21,"inconclusive [rising, single point]",–
Cc1csc(SCC(=O)NC(=O)Cc2ccccc2)n1,"inconclusive [falling, full curve, poor fit]",–
O=c1ccc2c(OCCCCOc3ccccc3)c3ccoc3cc2o1,"inconclusive [falling, partial curve, poor fit]",–
Cc1cc2ccccc2n1CCNC(=O)C(C)Oc1ccccc1 (configuration not stated),"inconclusive [rising, partial curve, poor fit]",–
COc1ccccc1NC(=O)Nc1ccc(CC#N)cc1,"inconclusive [rising, single point]",–
CCn1c(SCC(=O)Nc2ccc(C)cc2Br)nnc1-c1nonc1NC(C)=O,"inconclusive [falling, full curve, poor fit]",–
CC1=[N+](C)c2c(ccc3cccnc23)C1(C)C,active: 11.2 µM [fluorescent],–
Cc1ccc(C(=O)c2cn(Cc3ccc(F)cc3)c3nc(C)ccc3c2=O)cc1,active: 0.0112 µM [quencher],–
CCc1ccc[n+](-c2[nH]c(=O)sc2/C=N/NC([S-])=Nc2ccccc2)c1,–,inactive: -9.4%
CCCn1cc(S(=O)(=O)c2cccc(Cl)c2)c(=O)c2cc(F)c(N3CCN(CC)CC3)cc21,active: 112 µM [quencher],–
CN(C)c1ccc(CNc2nc(-c3ccco3)nn2S(=O)(=O)c2ccc(Cl)cc2)cc1,"inconclusive [falling, partial curve, poor fit]",–
COCCCNC(=O)Cn1c(=O)n(-c2cccc(C)c2)c(=O)c2c3c(sc21)CN(C(C)=O)CC3,"inconclusive [falling, full curve, poor fit]",–
Cc1cccc(N=Nc2c(C)c(C#N)c(O)[nH]c2=O)c1,–,inactive: 3.2%
Cc1ccc(NC(=O)Cn2c(=O)n(Cc3nc(-c4ccccc4)no3)c(=O)c3cc4c(cc32)OCO4)cc1C,–,inactive: -0.0828%
CCOC(=O)c1sc(N2C(=O)c3oc4ccc(F)cc4c(=O)c3C2c2cccc(OC)c2)nc1C (configuration not stated),"inconclusive [falling, full curve, poor fit]",–
CCN(C(=O)Cn1c(SCc2ccccc2F)nc2cccnc21)c1ccccc1,"inconclusive [quencher, full curve]",–

Structure (SMILES),Potency,"fluorescence change, negative = quenching"
CCC1CN(C(=O)NCc2cccc(OC)c2)c2ccccc2O1 (configuration not stated),"inconclusive [falling, partial curve, poor fit]",–
CCOC(=O)c1c(S(=O)(=O)N2CCC(C(=O)Nc3cccc(C#N)c3)CC2)c(C)n(C)c1C,"inconclusive [falling, partial curve, poor fit]",–
COc1ccc2c(c1OC)C(=O)OC2Nc1nc(-c2cc3cc([N+](=O)[O-])ccc3oc2=O)cs1 (configuration not stated),"inconclusive [falling, partial curve, poor fit]",–
CCOc1ccccc1CNC(=O)c1nn(C)c2c1CS(=O)(=O)c1ccccc1-2,active: 0.112 µM [quencher],–
Cc1ccccc1-c1nc(CS(=O)CC(=O)NCCc2ccc(Cl)cc2)c(C)o1 (configuration not stated),"inconclusive [falling, full curve, poor fit]",–
COc1ccc(CN(CCC(c2ccc(F)cc2)C2CCOC(C)(C)C2)C(=O)c2ccco2)cc1 (configuration not stated),–,inactive: -1.36%
CCOc1ccc(-c2cn3c(n2)sc2cc(C(=O)NCCC4=CCCCC4)ccc23)cc1,active: 2 µM [quencher],–
CC1CCCC(NC(=O)COC(=O)c2sc3ccccc3c2Cl)C1C (configuration not stated),"inconclusive [falling, partial curve, poor fit]",–
O=C(/C=C/c1ccco1)Nc1scc(-c2ccccc2)c1C(=O)O,–,inactive: -0.275%
CCOC(=O)/C=c1\s/c(=C\c2ccc(C(F)(F)F)cc2)c(=O)n1CC(=O)NCc1ccco1,"inconclusive [falling, full curve, poor fit]",–
O=C(Nc1nnc(S(=O)(=O)N2CCCCC2)s1)c1ccc(Cl)cc1,"inconclusive [falling, partial curve, poor fit]",–
COc1ccc(C(=O)Nc2ccc(-c3nnc4n3CCCCC4)cc2)cc1,"inconclusive [quencher, full curve]",–
COc1ccc(-n2cc(C(=O)N(CCN(C)C)Cc3ccccc3)c3ccccc3c2=O)cc1,"inconclusive [falling, full curve, poor fit]",–
CCc1ccc(NC(=O)COC(=O)CCCC2=NS(=O)(=O)c3ccccc3N2)cc1,"inconclusive [falling, partial curve, poor fit]",–
COc1ccc(Nc2nc(Nc3ccc(OC)cc3)nc(SC3=NCCS3)n2)cc1,–,inactive: -2.17%
Cc1ccc(S(=O)(=O)N2CCN(Cc3cc(Br)ccc3O)CC2)cc1,"inconclusive [falling, partial curve, poor fit]",–
Oc1ccc(NCc2cccc(OCc3ccc(F)cc3)c2)cc1,–,inactive: 16.1%
CCOC(=O)CC(NC(=O)c1cc2cc(Br)cc(OC)c2oc1=O)c1ccc(OC)cc1 (configuration not stated),"inconclusive [falling, full curve, poor fit]",–
Cc1cc(C(=O)NCc2ccc(Cl)cc2)n(-c2ccccc2)n1,–,inactive: -2.15%
CCCn1cc(S(=O)(=O)c2ccc(C)c(C)c2)c(=O)c2cc(F)c(N3CCC(C)CC3)cc21,"inconclusive [quencher, full curve]",–
COc1cccc(CNS(=O)(=O)c2ccc3c(c2)CC(C)N3C(=O)C2CCC2)c1 (configuration not stated),"inconclusive [falling, full curve, poor fit]",–

Structure (SMILES),Potency,"fluorescence change, negative = quenching"
Cc1ccc(C(=O)NNC(=O)c2cccnc2SCc2cccc([N+](=O)[O-])c2)cc1,inconclusive,–
CC1=NN(c2ccccc2)C(=O)/C1=C/c1c(O)n(-c2ccc(F)c(Cl)c2)[nH]c1=O,"inconclusive [quencher, partial curve]",–
COc1ccc(-c2noc(CCC(=O)Nc3cccc(C)c3C)n2)cc1OC,"inconclusive [quencher, full curve]",–
CCc1ccccc1NS(=O)(=O)c1ccc2c(c1)CCCN2C(=O)C1CCC1,"inconclusive [falling, partial curve, poor fit]",–
O=C(COc1ccc(Cl)cc1)Nc1nnc(S(=O)(=O)N2CCCCCC2)s1,"inconclusive [falling, partial curve, poor fit]",–
COc1ccccc1N1CCN(C(CNC(=O)C(=O)NCc2cccnc2)c2cccnc2)CC1 (configuration not stated),"inconclusive [falling, partial curve, poor fit]",–
CCOC(=O)c1c(NC(=O)c2cc(-c3ccc(OC)c(OC)c3)on2)sc(C)c1C,"inconclusive [quencher, full curve]",–
CCn1c(=O)cc(OCC(=O)N2CCN(c3cccc(C)c3C)CC2)c2ccccc21,"inconclusive [falling, full curve, poor fit]",–
O=C(CSc1ncnc2scc(-c3ccccc3)c12)N1CCN(Cc2ccc3c(c2)OCO3)CC1,active: 44.7 µM [fluorescent],–
COc1ccc(Cn2ccnc2SCC(=O)Nc2nnc(C)s2)cc1,"inconclusive [falling, full curve, poor fit]",–
CN(C)S(=O)(=O)c1ccc(NC(=O)C2CC3C=CC2C3)cc1 (configuration not stated),"inconclusive [falling, full curve, poor fit]",–
O=S(=O)(Nc1ccc(-n2cccc2)cc1)c1ccc(F)cc1,–,inactive: -4.04%
CCN1/C(=C/C=C/c2oc3ccc4ccccc4c3[n+]2CC)Oc2ccc3ccccc3c21,active: 50.1 µM [fluorescent],–
Cc1nc(N)sc1C(=O)N/N=C/c1c[nH]c2ccccc12,"inconclusive [quencher, partial curve]",–
Cc1ccc(NC(=O)CN(C)C(=O)Cn2ncc(Cl)c(Cl)c2=O)cc1,"inconclusive [falling, full curve, poor fit]",–
Cc1cc(C)cc(NC(=O)c2cc(S(=O)(=O)N3CCc4ccccc43)cn2C)c1,"inconclusive [falling, full curve, poor fit]",–
CN1C/C(=C/c2ccc(B(O)O)cc2)C(=O)/C(=C/c2ccc(B(O)O)cc2)C1,–,inactive: -3.04%
Cc1ccccc1C(=O)N[C@H](C(=O)OCC(=O)c1ccc[nH]1)C(C)C,"inconclusive [falling, partial curve, poor fit]",–
CC(C)C(=O)Nc1ccc2nc(SCC(=O)N3CCc4ccccc43)sc2c1,"inconclusive [quencher, full curve]",–
COc1ccc(NC(=O)CCc2nnc3n(Cc4ccc(C)cc4)c(=O)c4ccccc4n23)cc1,"inconclusive [quencher, full curve]",–
